14 sequences from the supplement of paper PMC7826260 can be followed below.

This is one part of the list. One pool of 16,384 single-stranded DNAs met each Rep nickase domain in vitro (3 µM enzyme, 1 h, 37 °C); shown is the middle of each 90-letter strand. Numbers give uncut DNA relative to the enzyme-free pool, as log2; uncut sequences lie near 0, cut ones below; no hit call is given. The scaling is to total reads, so uncut sequences can rise above 0 when many others are cut.

Test in all cases: uncleaved DNA left, log2 of reads against the no-enzyme library (log2 ratio); higher = less cleavage (more negative = more Rep cleavage of the k-mer); sequences stand for … in CTCGTCCG…ACCGGAGA
For assay [1], the system named is T1, Rep nickase domain of Muscovy duck circovirus.
T1 sequence (residues 1-111 of Rep, tag left off): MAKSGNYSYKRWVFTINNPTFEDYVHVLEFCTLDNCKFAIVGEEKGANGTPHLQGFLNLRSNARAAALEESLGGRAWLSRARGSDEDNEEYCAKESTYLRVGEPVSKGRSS
The procedure: (§1)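 A pool of 90-nt single-stranded DNAs with seven random bases just before the constant AC of the nick site (name = the seven bases) was cut by 3 µM recombinant His6-SUMO-tagged Rep nickase domain (300 nM DNA, 50 mM HEPES pH 8.0, 50 mM NaCl, 1 mM MnCl2, 1 h, 37 °C, three replicates). Uncut DNA was amplified and sequenced.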

The subject of assay [2] is T2, Rep nickase domain of banana bunchy top virus.
T2 sequence (residues 1-94 of Rep, tag left off): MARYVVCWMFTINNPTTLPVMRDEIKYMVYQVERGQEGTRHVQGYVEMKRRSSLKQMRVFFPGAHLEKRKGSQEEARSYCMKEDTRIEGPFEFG
The procedure: as §1
Assay [3] has as its system T3, Rep nickase domain of cabbage leaf curl virus.
T3 sequence (residues 1-116 of Rep, tag left off): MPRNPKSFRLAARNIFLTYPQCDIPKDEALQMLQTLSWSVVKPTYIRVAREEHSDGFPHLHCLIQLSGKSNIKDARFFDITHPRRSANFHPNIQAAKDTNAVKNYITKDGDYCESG
The protocol: as §1
In assay [4] the test system is T4, Rep nickase domain of chickpea chlorotic dwarf virus.
T4 sequence (residues 1-124 of Rep, tag left off): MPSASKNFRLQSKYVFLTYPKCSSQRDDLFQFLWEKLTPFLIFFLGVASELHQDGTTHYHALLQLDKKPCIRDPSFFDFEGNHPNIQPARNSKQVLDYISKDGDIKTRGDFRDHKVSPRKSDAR
The procedure:
as §1

Assay [5] deals with T5, Rep nickase domain of faba bean necrotic yellows virus.
T5 sequence (residues 1-98 of Rep, tag left off): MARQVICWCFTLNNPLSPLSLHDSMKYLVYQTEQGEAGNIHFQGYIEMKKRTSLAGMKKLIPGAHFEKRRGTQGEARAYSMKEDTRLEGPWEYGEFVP
The protocol: as §1
Assay [6] concerns T6, Rep nickase domain of maize striate mosaic virus.
T6 sequence (residues 1-117 of Rep, tag left off): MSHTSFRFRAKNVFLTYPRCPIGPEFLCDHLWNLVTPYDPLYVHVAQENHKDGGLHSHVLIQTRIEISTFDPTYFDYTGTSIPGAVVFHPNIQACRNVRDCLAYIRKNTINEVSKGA
The protocol: as §1
Assay [7] deals with T7, Rep nickase domain of porcine circovirus 2.
T7 sequence (residues 2-116 of Rep, tag left off): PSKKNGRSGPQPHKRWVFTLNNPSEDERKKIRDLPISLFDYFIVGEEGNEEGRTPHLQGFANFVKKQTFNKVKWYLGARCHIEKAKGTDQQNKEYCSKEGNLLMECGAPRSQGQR
The protocol:
as §1

Assay [8] relates to T8, Rep nickase domain of tomato yellow leaf curl virus.
T8 sequence (residues 1-136 of Rep, tag left off): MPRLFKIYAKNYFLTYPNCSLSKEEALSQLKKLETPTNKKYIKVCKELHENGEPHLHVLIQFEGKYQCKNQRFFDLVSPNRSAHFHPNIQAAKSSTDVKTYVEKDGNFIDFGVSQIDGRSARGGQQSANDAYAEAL
The procedure:
as §1

Assay [9] concerns T9, Rep nickase domain of wheat dwarf virus.
T9 sequence (residues 1-137 of Rep, tag left off): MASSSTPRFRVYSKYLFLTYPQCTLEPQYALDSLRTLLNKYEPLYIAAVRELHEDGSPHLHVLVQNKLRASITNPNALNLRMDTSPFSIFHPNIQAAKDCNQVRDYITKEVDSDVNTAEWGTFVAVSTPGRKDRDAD
The procedure:
as §1

In the case of CGACTTA, the “uncleaved DNA left (log2)” value in [1] stood at 0.103; in assay [2], 0.301; in [3] it was 0.22; in assay [4], 0.46; in assay [5], 0.0547; in assay [6], 1.32. For the same sequence, the entries for the “uncleaved DNA left (log2)” value in assay [7], in assay [8] and in [9] were 0.0284, 0.0293 and 0.178, respectively.
CTTAGGA: the “uncleaved DNA left (log2)” value in assay [1] was 0.141; in [2], 0.15; in assay [3] it was 0.162; in assay [4], 0.541; in assay [5], 0.151; in assay [6], -0.23. Moreover, the “uncleaved DNA left (log2)” value in assay [7] was determined as 0.29; in assay [8] it was 0.103; in assay [9], 0.228.
For the sequence CTTTTGA, the “uncleaved DNA left (log2)” value was 0.158 in [1]; -0.0428 in assay [2]; -0.237 in assay [3]; -0.311 in assay [4]; 0.0503 in assay [5]; -1.09 in [6]. Moreover, the “uncleaved DNA left (log2)” value is 0.00735 in [7], -0.0355 in assay [8] and 0.0867 in [9].
GATAAAA: the “uncleaved DNA left (log2)” value in assay [1] worked out at 0.0719; in [2] it was 0.107; in assay [3], 0.333; in [4] it was 0.622; in assay [5] it was 0.00971; in [6], 0.747. For the same sequence, the “uncleaved DNA left (log2)” value came to 0.168 in assay [7], 0.038 in [8] and 0.104 in assay [9].
As to CACTGCT, the “uncleaved DNA left (log2)” value in assay [1] is -1.52; in [2] it was -1.79; in [3], -0.865; in assay [4] it was -1.65; in assay [5], -0.0987; in assay [6] it was -1.22. Moreover, the results for the “uncleaved DNA left (log2)” value in assay [7], in assay [8] and in assay [9] were -3.61, -0.0138 and -0.207, respectively.
In the case of ATAGTTT, the “uncleaved DNA left (log2)” value in [1] is -0.0782; in assay [2] it was -0.133; in assay [3] it was -0.167; in assay [4], -2.3; in [5], -0.0644; in assay [6] it was -0.385. Further, the “uncleaved DNA left (log2)” value in assay [7] was -0.136; in assay [8], -0.0787; in [9], 0.0175.
As to TATAATA, the “uncleaved DNA left (log2)” value is -0.0192 in [1]; -0.0324 in assay [2]; -0.147 in assay [3]; -2.71 in assay [4]; 0.0711 in assay [5]; -0.523 in assay [6]. Further, the entries for the “uncleaved DNA left (log2)” value in assay [7], in [8] and in assay [9] were -0.204, 0.00916 and -0.0107, respectively.
With AGAACGA, the “uncleaved DNA left (log2)” value is 0.0118 in assay [1]; 0.0103 in assay [2]; -0.0445 in assay [3]; -0.0445 in assay [4]; -0.0071 in [5]; -0.664 in assay [6]. Also, the “uncleaved DNA left (log2)” value in assay [7] is 0.136; in assay [8] it was 0.0116; in assay [9] it was -0.0524.
As to TTTGCTT, the “uncleaved DNA left (log2)” value in [1] is -0.127; in assay [2] it was -0.0197; in assay [3], -0.541; in assay [4] it was -1.94; in [5], -0.045; in [6] it was -1.34. For the same sequence, the entries for the “uncleaved DNA left (log2)” value in assay [7], in assay [8] and in [9] were -0.125, -0.0463 and -0.221, respectively.
As for ACGGGAC, the “uncleaved DNA left (log2)” value in assay [1] was 0.0828; in [2], -0.0149; in [3], 0.8; in assay [4] it was 1.71; in assay [5], -0.147; in assay [6] it was 1.94. Besides, the “uncleaved DNA left (log2)” value is 0.191 in [7], 0.128 in [8] and 0.0464 in assay [9].
For GATGGAA, the “uncleaved DNA left (log2)” value in assay [1] is 0.0878; in assay [2], 0.0489; in assay [3] it was 0.508; in assay [4] it was 1.12; in assay [5] it was -0.00306; in assay [6], 1.49. Moreover, the “uncleaved DNA left (log2)” value is 0.146 in [7], 0.0224 in assay [8] and 0.0839 in [9].
For ATTAAAA, the “uncleaved DNA left (log2)” value was 0.0793 in [1]; 0.183 in assay [2]; 0.121 in assay [3]; 0.129 in [4]; 0.103 in [5]; -0.568 in assay [6]. Further, the figures for the “uncleaved DNA left (log2)” value in assay [7], in assay [8] and in [9] were 0.135, 0.115 and 0.122, respectively.
As to TGTAGTT, the “uncleaved DNA left (log2)” value in assay [1] is 0.0271; in assay [2] it was 0.0586; in assay [3] it was 0.167; in assay [4], -1.16; in [5], 0.135; in assay [6], 0.226. The “uncleaved DNA left (log2)” value is -0.585 in [7], 0.0415 in [8] and 0.0189 in [9].
Consider TTGCATC, for which the “uncleaved DNA left (log2)” value is 0.0406 in assay [1]; -0.104 in [2]; -0.472 in assay [3]; -0.756 in assay [4]; -0.0601 in assay [5]; -1.02 in assay [6]. Besides, the “uncleaved DNA left (log2)” value in assay [7] was -0.053; in [8] it was 0.00365; in assay [9], -0.0213.
